Assay results reported in PubChem BioAssay AID1346428 (National Center for Advancing Translational Sciences (NCATS), 2018).
Where “and” joins values, the source holds several entries; their conditions need not be identical. Equal values may be shown once. About 1,200 (2.5%) of roughly 48,000 compounds were called active. Another 2% or so got no clear call; they are omitted.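 The calls were made as follows: active = activation of at least 60% and not above a set upper limit (about 1 call in 100 departs from these limits); inconclusive = activation of 40% to 60%, or above that upper limit; inactive = activation under 40%.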 The list shows a part of the results.

target: Probable G-protein coupled receptor 32 (Homo sapiens) (UniProt O75388); assay: qHTS for Agonists of Human Resolvin D1 Receptor DRV1; settings: CHO-K1 GPR32 beta-arrestin PathHunter luminescence, 90 min; at 76.9 µM; hits give high values; zero percent set by DMSO-only wells; also: 0% is about no effect
UniProt O75388, sequence (O75388 whole entry, looked up): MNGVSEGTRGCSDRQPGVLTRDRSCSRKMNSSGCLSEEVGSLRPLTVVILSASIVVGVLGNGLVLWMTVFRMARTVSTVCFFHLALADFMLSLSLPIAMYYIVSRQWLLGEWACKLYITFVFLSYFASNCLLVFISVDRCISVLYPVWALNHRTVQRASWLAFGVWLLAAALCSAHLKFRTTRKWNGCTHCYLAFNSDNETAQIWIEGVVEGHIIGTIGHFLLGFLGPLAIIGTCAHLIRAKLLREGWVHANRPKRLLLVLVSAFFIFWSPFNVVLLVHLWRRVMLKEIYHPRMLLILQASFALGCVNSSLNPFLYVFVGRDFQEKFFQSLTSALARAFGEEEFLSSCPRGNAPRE
How it was run: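 CHO-K1 cells stably expressing ProLink-tagged GPR32 and Enzyme Activator-tagged beta-arrestin were seeded at 2,500 cells/well overnight, exposed to compounds for 90 min at 37 °C, then read by beta-Gal complementation chemiluminescence after 1 h detection reagent.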

Row | SMILES | activation
1 | COc1ccc(C(=O)OCc2cc(=O)n3nc(-c4cccs4)sc3n2)cc1 | inactive: 31.9%
2 | Cc1ccc(S(=O)(=O)Cc2ccc(C(=O)N3CCN(c4cccc(C)c4C)CC3)o2)cc1 | inactive: -4.67%
3 | CCC(=O)N1CCc2cc(Br)cc(S(=O)(=O)CCC(=O)N3CCN(c4cccc(C(F)(F)F)c4)CC3)c21 | inactive: -3.02%
4 | Cc1ccc(NC(=O)C2CCCN(c3nnc(C)c4c(C)n(-c5ccccc5)nc34)C2)c(Cl)c1 (centres undefined) | inactive: 11.9%
5 | O=[N+]([O-])c1cc(-c2nc(-c3ccccc3)no2)ccc1N1CCCCC1 | inactive: -19.9%
6 | CC1=C(C(=O)Nc2ccccc2)C(c2ccncc2)n2nc(SCc3ccccc3Cl)nc2N1 (centres undefined) | inactive: 2.52%
7 | O=C(Cn1c(=O)n(Cc2ccco2)c(=O)c2ccccc21)Nc1ccc(Cl)cc1Cl | inactive: -19.7%
8 | N[C@@H](Cc1cnc[nH]1)C(=O)O | inactive: 2.49%
9 | CC(=O)C1=C(OC(=O)C(C)C)c2ccccc2S(=O)(=O)N1Cc1ccccc1 | inactive: -29.7%
10 | O=C(NCCCc1nc2ccccc2n1Cc1ccccc1Cl)C1CCCCC1 | inactive: 0.166%
11 | CCC(=O)N1CCc2cc(Br)cc(S(=O)(=O)NCCc3ccc(OC)c(OC)c3)c21 | inactive: 10.4%
12 | Cc1[nH]n2c(=O)cc(-c3ccccc3Cl)nc2c1-c1ccccc1 | inactive: -45.8%
13 | CCn1c(SCc2ccccc2)nnc1-c1nonc1NC(C)=O | inactive: 3.6%
14 | CCCCCCN(CCCCCC)C(=O)Cc1c(-c2ccc(F)cc2)[nH]c2ccccc12 | inactive: -29.9%
15 | CCN(CC)CCNC(=O)c1ccc(NC(C)=O)cc1 | inactive: 1.33% and inactive: -1.23%
16 | CCOC(=O)C1CCCN(C(=O)Cn2ncc3c([nH]c4ccccc43)c2=O)C1 (centres undefined) | inactive: 13.7%
17 | COc1ccc(C(CC(=O)Nc2ccc(F)c(Cl)c2)N2Cc3ccccc3C2=O)cc1OC (centres undefined) | inactive: -5.17%
18 | Cc1cc(NC(=O)CN2C(=O)C(C)(C)c3ccccc32)ccc1Br | inactive: 22.3%
19 | CCN(C(=O)CSc1nc2ccccc2n1CC(=O)Nc1cccc(C#N)c1)c1ccccc1 | inactive: -25.5%
20 | Cc1ccc(CNC(=O)CC2Oc3ccccc3NC2=O)cc1 (centres undefined) | inactive: -4.1%
21 | Cc1ccc(N2CC3=C(C2=O)C(c2ccc(Br)cc2)NC(=O)N3C)cc1 (centres undefined) | inactive: -25.2%
22 | O=C(Cn1c(=O)oc2cc(S(=O)(=O)N3CCCCCC3)ccc21)Nc1cccc(C(F)(F)F)c1 | inactive: 22.6%
23 | Cc1ccccc1CNC(=O)c1ccc(NC(=O)c2nsc3ccccc23)cc1 | inactive: -20.1%
24 | Cc1ccc(-c2nc(C(=O)NCc3ccc(Cl)cc3)c3n2CCCCC3)cc1 | inactive: -36.6%
25 | Cc1ccccc1Nc1sc(C(=O)c2ccc3c(c2)OCO3)c(N)c1S(=O)(=O)c1ccccc1 | inactive: -19.8%
26 | O=C1Cc2cc(S(=O)(=O)N3CCN(c4ccccc4)CC3)ccc2N1 | inactive: -2.82%
27 | CCOC(=O)c1cnn(-c2ccc(OC)cc2)c1C1CCN(C(=O)OC(C)(C)C)CC1 | inactive: -6.94%

Row | SMILES | activation
28 | COC(=O)c1ccc(NC(=O)CCc2c(C)nn(-c3ccc(N4CCCC4)nn3)c2C)cc1 | inactive: -7.91%
29 | COc1ccccc1N1CCN(C(=O)CCc2c(C)nn(-c3ccc(N4CCCC4)nn3)c2C)CC1 | inactive: -6.85%
30 | CC1CCCCN1c1csc2ccc(F)cc2c1=O (centres undefined) | inactive: 17.8%
31 | Cn1nc(C(=O)Nc2cc(F)ccc2F)c2c1-c1ccccc1SC2 | inactive: 2.61%
32 | Cc1cccc(-c2nc(SCc3ccc(Br)cc3)n3[nH]c(=O)cc3n2)c1 | inactive: -0.167%
33 | CSc1nc2sc3c(c2c(=O)n1-c1ccc(C)c(Cl)c1)CCN(C(C)=O)C3 | inactive: -14.8%
34 | COC(=O)c1ccc(NC(=O)CSc2nc(=O)n(Cc3ccco3)c3c2CCC3)cc1 | inactive: -18%
35 | CN1C(=O)CC(C)(c2ccccc2)C1=O (centres undefined) | inactive: -4.19%
36 | CCOc1ccc(CCNC(=O)c2ccc3c(c2)c(C)c(C)n3C)cc1 | inactive: -8.26%
37 | COc1cc(C(=O)N(Cc2ccc(C(C)C)cc2)C2CCS(=O)(=O)C2)cc(OC)c1OC (centres undefined) | inactive: -13.8%
38 | COc1cc(NC(=O)c2nnn(Cc3ccc(F)cc3)c2N)cc(OC)c1 | active: 79.4%
39 | CCOc1ccc(CCNC(=O)CCc2c(C)nc3c(c(C)nn3-c3ccccc3)c2C)cc1OCC | inactive: -3.47%
40 | COc1cc(OC)c(NC(=O)c2c(C)oc3ncn(C)c(=O)c23)cc1Cl | inactive: 12%
41 | CCOc1ccc(NC(=O)c2ccc(NC(=O)CCS(=O)(=O)c3cccs3)cc2)cc1 | inactive: 7.06%
42 | Cc1ccc(C2CC(=O)N(Cc3ccccc3F)c3c2c(C)nn3-c2nc(C)cc(C)n2)cc1 (centres undefined) | inactive: -11.2%
43 | Cc1ccc(Cc2nc3ccccc3nc2SCC(=O)N2CCc3ccccc32)cc1 | inactive: 0.796%
44 | CCn1cc(C(=O)N2CCN(c3cccc(Cl)c3)CC2)c(=O)c2cc(S(=O)(=O)N3CCOCC3)ccc21 | inactive: -3.24%
45 | C[C@]12CCC(=O)C=C1CC[C@H]1[C@@H]3CC[C@](O)(C(=O)CO)[C@@]3(C)C[C@H](O)[C@@]12F | inactive: -8.35%
46 | COc1ccc(NC(=O)Nc2nnc(N3CCCCCC3)s2)cc1 | inactive: 7.4%
47 | CN(C)CCNC(=O)C1CCN(c2nc3ccccc3[nH]2)CC1 | inactive: 4.14%
48 | Cc1c(NC(=O)c2cc([N+](=O)[O-])ccc2N2CCOCC2)cccc1-c1nc2ccccc2o1 | inactive: 6.57%
49 | Cc1ccc(NC(=O)c2nc(S(C)(=O)=O)ncc2N(Cc2ccccc2)Cc2ccco2)c(C)c1 | inactive: -22.3%
50 | N=C(N)SCCc1cnc[nH]1 | inactive: 3.65%
51 | Cc1ccc(C(=O)Nc2c(-c3ccccc3)nc3ccccn23)cc1C | inactive: -7.25%
52 | COc1ccc(NC(=O)c2nnn(Cc3ccccc3C)c2N)c(OC)c1 | inactive: 19.2%
53 | CNC[C@H](O)c1cccc(O)c1 | inactive: -35.8% and inactive: -4.55%
54 | Cc1nn(-c2ccc(F)cc2)c(-n2cccc2)c1C(=O)N1CCN(c2ccc(F)cc2)CC1 | inactive: 28%
